Data: ChEMBL document CHEMBL1201862, “PubChem BioAssay data set” (2004)

system: NCI-H322M; experiment: DTP human tumour cell line panel, 48 h

Q: `N#Cc1c(N)[nH]c(=S)c(C#N)c1-c1cccc(Cl)c1` was tested. Which GI50 did it give?
A: The GI50 was inactive: 37.9 µM.

Q: Which GI50 does the source give for `O=Cc1cc(O)c(O)c(/C=N/n2c3ccccc3c3ccccc32)c1` here?
A: The GI50 was inactive: 7.21 µM.

Q: `O=C(CC1(O)C(=O)Nc2c(Cl)cc(Cl)cc21)c1ccccc1` (stereo not given) was tested. Which GI50 did it give?
A: The GI50 was inactive: > 100 µM.

Q: With `CCCNC(=S)NNC(=O)CSc1nc(-c2ccccc2)c(-c2ccccc2)[nH]1` as the compound, how does the GI50 read?
A: The GI50 was inactive: 60.4 µM.

Q: How did the GI50 turn out when `O=C1NC2CCCCC2NC1=C(C(=O)c1ccccc1)C(=O)c1ccccc1` (stereo not given) was run?
A: The GI50 was inactive: 80.5 µM.

Q: For `N/C(=N\O)N/N=C\c1cc([N+](=O)[O-])cc([N+](=O)[O-])c1O`, which GI50 is on record?
A: Its GI50 is inactive: > 68.5 µM.

Q: How did the GI50 turn out when `O=S(=O)(O)c1cc2ccc1/C=C\c1ccc(cc1S(=O)(=O)O)/N=N\c1ccc(c(S(=O)(=O)O)c1)/C=C\c1ccc(cc1S(=O)(=O)O)/N=N\2` was run?
A: Its GI50 is inactive: > 100 µM.

Q: `CC[S+]([O-])C(=O)N(O)c1ccc(Cl)cc1` (stereo not given) was tested. Which GI50 did it give?
A: Its GI50 is inactive: > 100 µM.

Q: With `O=C1c2cccc3cccc(c23)C(=O)N1CCCNOCCONCCCN1C(=O)c2cccc3cccc(c23)C1=O` as the compound, how does the GI50 read?
A: The GI50 was inactive: 33.5 µM.

Q: How did the GI50 turn out when `[N-]=[N+]=NC[C@H]1OCO[C@H](CN=[N+]=[N-])[C@H]2OCCOCCOc3ccccc3OCCOCCO[C@@H]21` was run?
A: Its GI50 is inactive: > 100 µM.

Q: How did the GI50 turn out when `Cc1c(Cl)cccc1NC(=O)C(=O)c1c(O)c2ccc(O)cc2oc1=O` was run?
A: The GI50 was inactive: > 100 µM.

Q: For `O=C(/C=C/c1cccc(Oc2ccccc2)c1)NCc1ccc(C(=O)NCCc2ccccc2)cc1`, which GI50 is on record?
A: Its GI50 is inactive: > 100 µM.

Q: `COc1cc(C2(c3ncc[nH]3)SSSCC2O)ccc1O` (stereo not given) was tested. Which GI50 did it give?
A: The GI50 was inactive: > 69.3 µM.

Q: How did the GI50 turn out when `CC1=NN(c2nc(N)nc(/C(C#N)=C\c3ccc([N+](=O)[O-])s3)n2)C(C)(C)C1` was run?
A: The GI50 was inactive: 12.4 µM.

Q: `CC(C)=CCC[C@](C)(O[C@@H]1O[C@H](CO)[C@@H](O)[C@H](O)[C@H]1O)[C@H]1CC[C@]2(C)[C@@H]1[C@H](O)C[C@@H]1[C@@]3(C)CC[C@H](O)C(C)(C)[C@@H]3[C@@H](O[C@@H]3O[C@H](CO)[C@@H](O)[C@H](O)[C@H]3O[C@@H]3O[C@@H](C)[C@H](O)[C@@H](O)[C@H]3O)C[C@]12C.CC(C)=CCC[C@](C)(O[C@@H]1O[C@H](CO)[C@@H](O)[C@H](O)[C@H]1O)[C@H]1CC[C@]2(C)[C@@H]1[C@H](O)C[C@@H]1[C@@]3(C)CC[C@H](O)C(C)(C)[C@@H]3[C@@H](O[C@@H]3O[C@H](CO)[C@@H](O)[C@H](O)[C@H]3O[C@@H]3O[C@H](CO)[C@@H](O)[C@H](O)[C@H]3O)C[C@]12C` was tested. Which GI50 did it give?
A: The GI50 was inactive: > 75 µM.

Q: For `O=C(Nc1ccc(Cl)cc1)c1cc(S(=O)(=O)Nc2nnc3c(Cl)cc(C(F)(F)F)cn23)c(S)cc1Cl`, which GI50 is on record?
A: Its GI50 is inactive: 47.6 µM.

Q: With `c1ccc(NN=C(c2ccccn2)c2ccccn2)nc1` as the compound, how does the GI50 read?
A: The GI50 was active: 0.345 µM.

Q: How did the GI50 turn out when `O=C1NC2(CCCCC2)C2CCCCC(O)C12` (stereo not given) was run?
A: The GI50 was inactive: > 100 µM.

Q: Which GI50 does the source give for `CC(C)(C)C1CCC2c3c([nH]c4ncccc34)C3C(=O)N(c4ccccc4)C(=O)C3C2C1` (stereo not given) here?
A: The GI50 was inactive: > 100 µM.

Q: For `CCc1cccc(C)c1NC(=O)CCc1nnc(SC)o1`, which GI50 is on record?
A: Its GI50 is inactive: > 100 µM.

Q: How did the GI50 turn out when `CC(=O)OC1C[C@@H](C)C2(C[C@H](O)c3ccoc3)C(=O)OC[C@]13C2CCC(O)C31CO1` (stereo not given in full) was run?
A: Its GI50 is inactive: > 100 µM.

Q: With `CC(=O)Oc1c(-c2ccccc2)sc2ccccc12` as the compound, how does the GI50 read?
A: Its GI50 is inactive: 16.5 µM.

Q: `COc1cc(Oc2nc3cc(F)c(F)cc3nc2-c2ccccc2)cc(OC)c1OC` was tested. Which GI50 did it give?
A: The GI50 was inactive: > 100 µM.

Q: `CC(C)(O)C1CC[C@]2(C)CC[C@]3(C)[C@H](CC[C@@H]4[C@@]5(C)CC[C@H](O)C(C)(C)[C@@H]5CC[C@]43C)[C@@H]12` (stereo not given in full) was tested. Which GI50 did it give?
A: Its GI50 is inactive: 32.1 µM.

Q: Which GI50 does the source give for `C=C1C(=O)OC2CC(C)C(C(O)CC(C)O)=CCC12` (stereo not given) here?
A: Its GI50 is inactive: 29.7 µM.

Q: Which GI50 does the source give for `O=C(O)c1ccc(CI)cc1` here?
A: The GI50 was inactive: 33 µM.

Q: For `O=C1/C(=C/c2ccccc2)CCc2ccc(Cl)nc21`, which GI50 is on record?
A: Its GI50 is inactive: 17.4 µM.

Q: With `C=CCC(O[Si](C)(C)C(C)(C)C)c1cc(O[Si](C)(C)C(C)(C)C)ccc1OC` (stereo not given) as the compound, how does the GI50 read?
A: Its GI50 is inactive: > 100 µM.

Q: `O=C(CCc1cc(O)cc(O)c1)NCCc1cc(O)cc(O)c1` was tested. Which GI50 did it give?
A: Its GI50 is inactive: > 100 µM.

Q: With `CC(=O)OC1CCC2OOC1O2` (stereo not given) as the compound, how does the GI50 read?
A: Its GI50 is inactive: > 100 µM.

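Interpolation was linear, between the two tested concentrations surrounding the appropriate level; five concentrations were tested over 48 hours in 96-well plates. Here, GI50 denotes the concentration required for 50% inhibition of growth.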 The source made the active and inactive calls. No stated cut-off is given here; in the data, active = GI50 up to about 1.1 µM and inactive = higher.
